Experimental data taken from PubChem BioAssay AID1508623 (National Center for Advancing Translational Sciences (NCATS), 2021).
The whole screen tested about 48,000 compounds, of which about 450 (0.94%) were called active. About 19% were inconclusive and are not listed. The call rests on the fitted dose curve; in most records, active means well fitted inhibition curve with a large enough effect; inconclusive means small, poorly fitted or top-dose-only effect; inactive means no such curve, though single readings can be large or run the other way. Some of the results follow.

assay: Primary qHTS for Identification of Small Molecule Inhibitors of Huntingtin Promoter Activity; details: HEK293 HTT promoter firefly luciferase reporter (activity 0% = vehicle and -100% = no light), 24 h; series mostly up to 57.5 µM; activity change, negative = inhibition: at the top concentration; further: nearly all actives have a fitted effect of over 50% in size
Method in brief: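 Firefly luciferase readout (Dual-Glo, 10 min RT) after 24 h, 37 °C compound exposure (final up to 57.5 uM) of HEK293 reporter cells cultured 24 h beforehand; PTC124 at 50 uM final as control inhibitor; activity scaled vehicle 0%, zero RLU -100%.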
Potency means the concentration at half of the fitted maximal effect.

Activity change, negative = inhibition, inactive:
O=C(CCC(=O)N1Cc2ccccc2Oc2ncccc21)Nc1ccc(Cl)cc1 -34.2%, COc1ccc(-c2nn(CC(=O)NC3CCCC3)c3c2cnc2ccc(F)cc23)cc1 55.8%, CC1CCN(S(=O)(=O)c2ccc3c(c2)N(CC(=O)NCc2ccccc2)C(=O)CO3)CC1 -19.4%, COC(=O)c1ccc(Cl)cc1NC(=O)N1CC=C(c2c[nH]c3ccccc23)CC1 -28.9%, O=C(Cn1ncc2c(=O)oc3ccccc3c21)Nc1cc(F)ccc1F -16.6%, O=C(CSc1nc2nccnc2c(=O)n1CCc1c[nH]c2ccccc12)Nc1ccccc1F 1.64%, Oc1ccccc1Nc1nc(-c2ccccc2)c2cc(Cl)ccc2n1 -11.4%, Cc1cccc(OCCCC(=O)Nc2sc3c(c2C(N)=O)CCC(C)C3)c1 (stereo not drawn) -26%, COc1ccc2c(CNCC(C)c3ccccc3)c(C(=O)O)n(Cc3ccc(F)cc3Cl)c2c1 (stereo not drawn) -6.43%, COc1ccc(/C=C(\C#N)c2nc(-c3cc(Cl)ccc3OC)cs2)cc1 -7.38%, COc1cc(OC)c(NC(=O)c2c(C)oc3ncn(C)c(=O)c23)cc1Cl -6.89%, CCOc1ccc(NC(=O)c2ccc(NC(=O)CCS(=O)(=O)c3cccs3)cc2)cc1 -24.5%, Cc1ccc(C2CC(=O)N(Cc3ccccc3F)c3c2c(C)nn3-c2nc(C)cc(C)n2)cc1 (stereo not drawn) -22.3%, C[C@]12CCC(=O)C=C1CC[C@H]1[C@@H]3CC[C@](O)(C(=O)CO)[C@@]3(C)C[C@H](O)[C@@]12F 8.72%, CCn1cc(C(=O)N2CCN(c3cccc(Cl)c3)CC2)c(=O)c2cc(S(=O)(=O)N3CCOCC3)ccc21 -0.416%, Cc1ccc(Cc2nc3ccccc3nc2SCC(=O)N2CCc3ccccc32)cc1 -7.24%, CN(C)CCNC(=O)C1CCN(c2nc3ccccc3[nH]2)CC1 2.82%, Cc1c(NC(=O)c2cc([N+](=O)[O-])ccc2N2CCOCC2)cccc1-c1nc2ccccc2o1 -17.2%, Cc1ccc(NC(=O)c2nc(S(C)(=O)=O)ncc2N(Cc2ccccc2)Cc2ccco2)c(C)c1 -24.3%, CNC[C@H](O)c1cccc(O)c1, COc1ccc(NC(=O)c2nnn(Cc3ccccc3C)c2N)c(OC)c1 -28%, Cc1ccc(C(=O)Nc2c(-c3ccccc3)nc3ccccn23)cc1C -7.59%, O=C(Nc1cccc(C(=O)OCc2cc(=O)n3nc(C4CC4)sc3n2)c1)c1ccc(F)cc1 4.35%, CC(=O)c1ccc(S(=O)(=O)N2CCC(Oc3ccc(-n4cnnn4)cc3)CC2)cc1 8.32%, COc1ccc(S(=O)(=O)Nc2ccc(O)c(Sc3nc4ccccc4s3)c2)cc1 -6.87%, CCc1ccc(NC(=O)CN2C(=O)C(=O)c3ccccc32)cc1 11.6%, O=C(Nc1cccc(Cl)c1)N1Cc2ccccc2Oc2ncccc21 -10.3%, CCCC(=O)NC1CC(=O)N(c2ccc3c(c2)OCCO3)C1 (stereo not drawn) 1.14%, O=C(O)[C@H]1O[C@H](Oc2cc3oc(-c4ccccc4)cc(=O)c3c(O)c2O)[C@H](O)[C@@H](O)[C@H]1O 16.7%, COc1ccccc1C1C(C(N)=O)=C(C)Nc2nc(SCc3ccccc3F)nn21 (stereo not drawn) -4.89%, Cc1c(C(=O)N(C)C)sc2c1c(=O)n(-c1ccc(Cl)c(Cl)c1)c(=O)n2Cc1ccc(F)cc1 2.62%, OCc1ccc(-c2ccc(-c3ccc(CO)s3)o2)s1 -1.28%, COc1ccc(NC(=O)CCS(=O)(=O)c2cc(Br)cc3c2N(C(C)=O)CC3)c(OC)c1 -7.8%, O=c1c(-c2ccc(O)cc2)coc2cc(O)cc(O)c12, CCOC(=O)Nc1ccc2c(c1)N(C(=O)CCN1CCOCC1)c1ccccc1S2 -6.73%, CCn1cc(C(=O)N(C)Cc2ccccc2)c(=O)c2cc(S(=O)(=O)N3CCCCC3)ccc21 67.1% [at 11.5 µM], Cc1cccc(N2CCN(C(=O)Cn3nc(C)c4sc5ccccc5c4c3=O)CC2C)c1 (stereo not drawn) -11.8%, COC(=O)C1=C(c2ccccc2)c2ccccc2S(=O)(=O)N1CC(=O)Nc1cc(C)ccc1C -19.6%, Cc1ccc(CN2C(=O)C3(SCC(=O)N3c3ccc(C)c(C)c3)c3ccccc32)cc1 (stereo not drawn) -34.7%, CCOC(=O)c1cccc(NC(=O)CCc2c(C)nc3c4cccnc4nn3c2C)c1 -11.5%, CCOC(=O)Cn1nc(N2CCN(c3ccc(F)cc3)CC2)ccc1=O -12.1%, Cc1cccc(N2CCN(c3c(CN4CCCC4)c(=O)oc4ccccc34)CC2)c1C -9.25%, Cc1c(C(=O)N2CCOCC2)oc2c1-c1nn(CC(=O)NCc3ccccc3)cc1CC2 -25.3%, CSc1ccc(Nc2nn(-c3ccc(OC(F)(F)F)cc3)nc2C(C)=O)cc1 -5.57%, Cn1c(=O)n(C)c2cc(CNCc3ccc(C(=O)O)cc3)ccc21 -13.6%, C[C@H](NC(=O)Cc1cc(F)cc(F)c1)C(=O)N[C@@H]1C(=O)N(C)c2ccccc2-c2ccccc21 -1.35%, CCOCCn1ccc2c(OCC(=O)Nc3cc(C(F)(F)F)ccc3Cl)cccc2c1=O 0%

Potency, active:
Cc1nn(-c2ccc(F)cc2)c(-n2cccc2)c1C(=O)N1CCN(c2ccc(F)cc2)CC1 28.2 µM
